Data published in the antibiotic and cytotoxicity screens of Wong et al. (2023).
The list shows a part of the results.

Tests used:
HSkMC = human skeletal muscle cells; test: cytotoxicity call (relative viability < 0.9); conditions: 10 µM
S. aureus RN4220 = test: growth inhibition call (relative growth <= 0.2); conditions: 50 µM

Compound	cytotoxicity call (HSkMC)	growth inhibition call (S. aureus RN4220)
CC(C)NC(=O)Nc1cccc2c1O[C@H](CN(C)S(=O)(=O)c1ccc(Cl)cc1)[C@@H](C)CN([C@@H](C)CO)C2=O	inactive	inactive
O=C(CN1CCOCC1)NCC[C@H]1CC[C@H](NC(=O)Nc2ccccc2)[C@@H](CO)O1	inactive	inactive
COc1ccc(NC(=O)N(C)C[C@H]2Oc3ccc(NC(=O)Cn4cnnn4)cc3CC(=O)N([C@@H](C)CO)C[C@@H]2C)cc1	inactive	inactive
COC(=O)/C=C/C(=O)O	inactive	inactive
COc1ccc(NC(=O)N(C)C[C@H]2Oc3c(NS(=O)(=O)c4cn(C)cn4)cccc3C(=O)N([C@@H](C)CO)C[C@H]2C)cc1	inactive	inactive
Nc1c[nH]ccc1=O	inactive	inactive
C[C@H]1CN([C@@H](C)CO)C(=O)c2cccc(NC(=O)Nc3cccc4ccccc34)c2O[C@H]1CN(C)CC1CCCCC1	inactive	inactive
O=C(C[C@@H]1C[C@H]2c3cc(NC(=O)c4ccc5c(c4)OCO5)ccc3O[C@H]2[C@H](CO)O1)NCc1ccc(Oc2ccccc2)cc1	inactive	inactive
C[C@@H]1CN([C@@H](C)CO)C(=O)c2cc(NC(=O)Nc3ccc4c(c3)OCO4)ccc2O[C@@H](C)CCCCO[C@H]1CN(C)C(=O)Nc1ccc(C(F)(F)F)cc1	inactive	inactive
CC(C)NC(=O)N(C)C[C@@H]1Oc2ccc(NC(=O)NC3CCCCC3)cc2C(=O)N([C@@H](C)CO)C[C@@H]1C	inactive	inactive
CC(=O)N1[C@H](CNC(=O)CN2CCOCC2)[C@@H](c2ccccc2)[C@@H]1CO	inactive	inactive
